# About 5,700 (2.6%) of roughly 220,000 compounds were called active. Inconclusive means that the source gave no clear call. Such entries were picked first, then a sample of the others. The call rests on the fitted dose curve; in most records, active means well fitted inhibition curve with a large enough effect; inconclusive means small, poorly fitted or top-dose-only effect; inactive means no such curve, though single readings can be large or run the other way. Where the call is inconclusive, the potency comes from a doubtful curve fit.
# Target: Lysine-specific demethylase 5B (Homo sapiens) (UniProt Q9UGL1)
# Chain of UniProt Q9UGL1 (Q9UGL1 whole entry, looked up): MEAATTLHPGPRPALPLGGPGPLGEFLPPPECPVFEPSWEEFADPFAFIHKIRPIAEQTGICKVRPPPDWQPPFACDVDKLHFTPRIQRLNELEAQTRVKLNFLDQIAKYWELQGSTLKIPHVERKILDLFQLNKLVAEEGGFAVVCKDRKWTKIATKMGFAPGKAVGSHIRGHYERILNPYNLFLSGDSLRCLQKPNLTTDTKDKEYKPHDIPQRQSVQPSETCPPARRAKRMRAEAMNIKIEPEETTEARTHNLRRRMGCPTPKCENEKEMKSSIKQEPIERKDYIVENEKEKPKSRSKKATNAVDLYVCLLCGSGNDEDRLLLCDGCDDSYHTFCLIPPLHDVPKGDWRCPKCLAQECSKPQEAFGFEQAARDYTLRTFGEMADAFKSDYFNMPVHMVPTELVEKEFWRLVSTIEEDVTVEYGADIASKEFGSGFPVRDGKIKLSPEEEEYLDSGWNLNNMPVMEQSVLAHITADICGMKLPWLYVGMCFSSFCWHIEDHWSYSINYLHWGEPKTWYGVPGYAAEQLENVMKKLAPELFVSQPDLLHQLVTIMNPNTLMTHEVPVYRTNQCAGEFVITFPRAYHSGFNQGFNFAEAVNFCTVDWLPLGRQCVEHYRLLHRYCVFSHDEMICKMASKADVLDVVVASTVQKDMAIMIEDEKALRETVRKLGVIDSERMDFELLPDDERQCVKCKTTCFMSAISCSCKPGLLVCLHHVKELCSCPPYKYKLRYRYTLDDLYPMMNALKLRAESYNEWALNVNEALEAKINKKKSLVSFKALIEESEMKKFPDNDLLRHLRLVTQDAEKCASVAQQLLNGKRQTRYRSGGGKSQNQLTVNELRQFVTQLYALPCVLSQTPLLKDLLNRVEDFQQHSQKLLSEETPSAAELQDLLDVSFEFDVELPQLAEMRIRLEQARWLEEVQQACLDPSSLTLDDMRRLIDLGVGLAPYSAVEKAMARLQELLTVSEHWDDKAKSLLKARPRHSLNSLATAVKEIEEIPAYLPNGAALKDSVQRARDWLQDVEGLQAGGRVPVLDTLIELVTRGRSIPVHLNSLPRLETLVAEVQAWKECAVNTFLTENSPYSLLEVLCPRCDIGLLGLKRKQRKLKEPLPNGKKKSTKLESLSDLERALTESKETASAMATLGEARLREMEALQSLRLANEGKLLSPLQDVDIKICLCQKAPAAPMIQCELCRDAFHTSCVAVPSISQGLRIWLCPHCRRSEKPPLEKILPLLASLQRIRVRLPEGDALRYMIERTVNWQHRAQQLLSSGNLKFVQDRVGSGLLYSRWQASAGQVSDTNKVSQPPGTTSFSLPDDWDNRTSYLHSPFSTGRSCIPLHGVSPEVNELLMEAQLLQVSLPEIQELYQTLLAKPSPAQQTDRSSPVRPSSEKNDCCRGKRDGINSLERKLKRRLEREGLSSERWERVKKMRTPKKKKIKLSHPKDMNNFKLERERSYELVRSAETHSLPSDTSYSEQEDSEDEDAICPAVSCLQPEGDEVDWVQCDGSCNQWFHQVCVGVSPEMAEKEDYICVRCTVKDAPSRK
# Test: Primary screen for KDM5B Histone Demethylases FDH-coupled qHTS; further: nearly all actives have a fitted effect of over 70% in size; on activity change, negative = inhibition: 0% is about no effect
# Details: FDH-coupled NADH fluorescence (FDH is formaldehyde dehydrogenase); activity change, negative = inhibition: at 57.7 µM (top of the series) unless noted
# Procedure, shortened: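 Here, H3K4me3 peptide (12.5 µM in substrate mix) is demethylated by KDM5BΔAP, 200 nM final, after 10 min compound exposure. Formaldehyde product is coupled through FDH (0.25 U/mL in mix) to NADH fluorescence; 30-min ΔRFU feeds dose-response curves.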
# Potency means the concentration at half of the fitted maximal effect; tags describe the fitted curve by direction and shape.
SMILES,Potency,"activity change, negative = inhibition"
CCN(CC)C(=O)CC[C@@H]1CNC(=O)[C@@H]2C[C@H](NCc3ccc(OC)cc3)CN12,"inconclusive: 31.6 µM [inhibitor, partial curve]",–
O=C1CCN(Cc2ccncc2)CCCC(C(=O)N2CCN(c3ccccn3)CC2)CCN1 (configuration not stated),"inconclusive: 28.2 µM [inhibitor, partial curve, poor fit]",–
Clc1ccccc1-c1cc(C2CCN(Cc3cc4n(n3)CCNC4)CC2)[nH]n1,"inconclusive: 10 µM [inhibitor, partial curve, poor fit]",–
Cc1cc(NCc2ccccn2)n2ncc(-c3ccc(F)cc3)c2n1,"inconclusive: 28.2 µM [inhibitor, partial curve, poor fit]",–
CCCNC(=O)CC(c1ccccc1OC)c1c[nH]c2c(CC)cccc12 (configuration not stated),active: 31.6 µM,–
CSCC[C@H](NC(=O)Cc1c(C)c2c(cc(C)c3c(C)coc32)oc1=O)C(=O)O,"inconclusive: 17.8 µM [inhibitor, partial curve, poor fit]",–
Cn1cc(C(NC(=O)c2cccc(Cn3cccn3)c2)C2CC(O)C2)cn1 (configuration not stated),–,inactive: 15.2%
CCNC(=O)Cc1ccc(N(Cc2ccccc2)C(=O)c2ccco2)cc1,–,inactive: 18.4%
CCn1cnnc1-c1nn(C)c2c1CN(C(=O)CN1CCCCCC1)CC2,"inconclusive: 8.91 µM [inhibitor, partial curve]",–
COc1ccc(NC(=O)CCc2nc3cccnc3n2Cc2cccs2)c(OC)c1,"inconclusive: 15.8 µM [inhibitor, partial curve, poor fit]",–
COc1ccc(-c2cn(C)c(=O)n3cc(COc4ccnn4C)nc23)cc1OC,active: 35.5 µM,–
CN1CCN(C(=O)C2CCCN(S(=O)(=O)c3ccc(Cl)cc3)C2)CC1 (configuration not stated),"inconclusive: 12.6 µM [inhibitor, partial curve, poor fit]",–
COc1cc2c(C(=O)O)c(C)n(C)c2c2ccccc12,"inconclusive: 14.1 µM [inhibitor, partial curve, poor fit]",–
CN(C)c1ncc2c(n1)C(C)(C(=O)Nc1cccc(F)c1)CCC2 (configuration not stated),active: 31.6 µM,–
O=C1CC(C(=O)O)C2(CCN(c3cc(C(=O)O)c4ccccc4n3)CC2)N1 (configuration not stated),"inconclusive: 28.2 µM [inhibitor, partial curve, poor fit]",–
O=C(O)[C@]12CCCN[C@@H]1CCN(c1cc(N3CCOCC3)ncn1)C2,"inconclusive: 11.2 µM [inhibitor, partial curve, poor fit]",–
COc1ccc(-c2cc(C[C@H]3CNCC[C@H]3CC(=O)Nc3ccccc3)no2)cc1,"inconclusive: 35.5 µM [inhibitor, partial curve]",–
O=C(CCS(=O)(=O)c1ccc(Br)s1)Nc1c(F)cccc1F,–,inconclusive: -40.3% [inhibitor]
O=S(=O)(CCSc1nnnn1C1CCCC1)c1cc(Cl)ccc1Cl,–,inactive: -13.6%
O=S(=O)(NCC(c1ccco1)S(=O)(=O)c1ccccc1)c1cc(F)ccc1F (configuration not stated),"inconclusive: 28.2 µM [inhibitor, single point]",–
O=C(NC1CCN(Cc2ccccc2)C1)c1ccccc1-c1ncc(-c2ccccc2)o1 (configuration not stated),"inconclusive: 10 µM [inhibitor, partial curve, poor fit]",–
COc1cccc(/C=C/c2nc(C#N)c(N(C)C)o2)c1,–,inactive: 3190%
CCNc1cc(N2CCC(CCC(=O)O)CC2)ncn1,–,inactive: -11.4%

SMILES,Potency,"activity change, negative = inhibition"
COc1ccccc1Nc1ncc2c(n1)CN(C(=O)c1cc3ccccc3n1C)CCN2,active: 39.8 µM,–
CCCC(=O)Nc1cccc(NC(=O)c2ccc(C)c(C)c2)c1,–,inactive: 12.2%
Cc1cccc(-c2nc3ccccc3c(=O)n2CCCN2CCOCC2)c1,–,inactive: 13.1%
CC(C)c1cc(NCc2cccnc2-n2cncn2)n2nccc2n1,"inconclusive: 22.4 µM [inhibitor, partial curve, poor fit]",–
CCCNC(=S)NNC(=O)C(C)C,–,inactive: -9.45%
COc1cccc(-c2cc(C(F)(F)F)n3nc(-c4ccc(C)cc4)cc3n2)c1,–,inconclusive: -44.5% [inhibitor]
CCc1ccccc1N1CC(c2nc3ccccc3n2CCCCOc2ccccc2OC)CC1=O (configuration not stated),"inconclusive: 17.8 µM [inhibitor, partial curve, poor fit]",–
COc1ccc(C(=O)NCc2nnc3cc(-c4nc(C)no4)ccn23)cc1F,active: 7.94 µM,–
N#CCCC(C#N)CSc1nnc(-c2c[nH]c3ccccc23)n1C1CC1 (configuration not stated),–,inactive: -11.6%
Cc1noc(Cn2c(=O)c3cc4c(cc3n(CC(=O)Nc3ccc(C(C)C)cc3)c2=O)OCO4)n1,"inconclusive: 4.47 µM [inhibitor, full curve, poor fit]",–
CC(C)c1ccc(NC(=O)N2CC[C@@H](CC(=O)O)[C@@H](CC3=NCCc4ccccc43)C2)cc1,–,inactive: -25%
COc1ccccc1N1CCN(C(=O)c2cc3c(s2)-c2ccccc2OC3)CC1,"inconclusive: 28.2 µM [inhibitor, partial curve, poor fit]",–
CCc1cccc(NC(=O)c2cc(S(=O)(=O)N3CCCCCC3)cn2C)c1,"inconclusive: 39.8 µM [inhibitor, single point]",–
COc1cccc(S(=O)(=O)N2CCC3(CC2)CC2C(=O)NCCN2C3)c1 (configuration not stated),"inconclusive: 12.6 µM [inhibitor, partial curve, poor fit]",–
CCOC(=O)Nc1ccc2c(CN3CCC(C(=O)OC)CC3)cc(=O)oc2c1,"inconclusive: 15.8 µM [inhibitor, partial curve, poor fit]",–
CN(C)[C@H]1CCCCN(C(=O)CCc2ccc(-c3ccc(Cl)cc3)[nH]2)C1,active: 31.6 µM,–
Cc1ccc(-c2cc3ccccc3[nH]2)cc1,–,inactive: -3.4%
CN(Cc1ccccc1)C(=O)C1CCCN1S(=O)(=O)c1ccc2c(c1)n(C)c(=O)c(=O)n2C (configuration not stated),"inconclusive: 25.1 µM [inhibitor, partial curve, poor fit]",–
CSc1nc2ccc(S(=O)(=O)NCc3ccccc3)cc2s1,–,inactive: -17.4%
Oc1ccccc1CN1CCC[C@H]1c1nc(-c2ccc(N3CCOCC3)nc2)no1,active: 35.5 µM,–
CC(=O)N1CCN(C(=O)c2ccc3c(c2)NC(C)(COc2cccnc2)CO3)CC1 (configuration not stated),–,inactive: -16.8% [at 86.2 µM]
CC(=O)N1CCC(Cc2noc(-c3ccncc3)n2)C1 (configuration not stated),–,inactive: 21.8%
COc1ccc(CCN2CCC(CN(C)C(=O)c3ccccc3SC)CC2)cc1,–,inactive: -0.301%

SMILES,Potency,"activity change, negative = inhibition"
COCCOC1CCOC2(CCN(C(=O)CCc3nc4ccccc4s3)CC2)C1 (configuration not stated),–,inactive: -18.5%
O=C(C1CCCC1)N1CC2(CCN(CC3CC3)CC2)Cc2ccccc21,"inconclusive: 112 µM [inhibitor, partial curve, poor fit]",–
CCOc1ccccc1CNC(=O)C1CCN(c2nnc(C)c3c(C)n(-c4ccc(C)cc4)nc23)CC1,"inconclusive: 17.8 µM [inhibitor, partial curve, poor fit]",–
COc1cc(C2CC(=O)Nc3c2ncn3-c2ccccc2Br)ccc1O (configuration not stated),"inconclusive: 25.1 µM [inhibitor, single point]",–
CCCCc1cc(=O)oc2cc(OC(C)C(=O)NCc3cccnc3)ccc12 (configuration not stated),"inconclusive: 22.4 µM [inhibitor, partial curve, poor fit]",–
CCC(CC)(CC(=O)Nc1ccccc1CO)C(=O)O,–,inactive: 18.9%
CNc1ccc(C(=O)NCCCc2c(C)noc2C)cn1,"inconclusive: 35.5 µM [inhibitor, partial curve, poor fit]",–
O=C(CC1(O)C(=O)N(CCc2ccccc2)c2ccc(Br)cc21)c1ccccc1 (configuration not stated),"inconclusive: 12.6 µM [inhibitor, partial curve, poor fit]",–
COc1ccc(C(=O)Nc2ccc(S(=O)(=O)N(C)c3ccccc3)cc2)cc1,"inconclusive: 39.8 µM [inhibitor, single point]",–
O=C(Nc1ccccc1)C1(CCO)CCN(Cc2ccccc2)C1 (configuration not stated),–,inactive: -6.67%
Cc1c(C2=CCN(S(=O)(=O)c3ccc(Cl)cc3)CC2)c2ccccc2n1CC(=O)N1CCCC1,"inconclusive: 22.4 µM [inhibitor, single point]",–
CCCCc1ccc(Nc2nc(NCCO)c3nccnc3n2)cc1,–,inactive: -10.8%
Cc1ccc(-c2cc(N3CCCN(C(=O)C(C)Oc4ccccc4)CC3)n[nH]2)cc1C (configuration not stated),"inconclusive: 25.1 µM [inhibitor, partial curve, poor fit]",–
Cc1cc2c(n1-c1ccc(C(=O)NCCc3ccc(Cl)cc3)cc1)CCC(C)C2 (configuration not stated),"inconclusive: 17.8 µM [inhibitor, single point]",–
c1ccc(Oc2ccccc2-c2cc3c(cn2)CN(Cc2ccncc2)CCN3)cc1,"inconclusive: 31.6 µM [inhibitor, single point]",–
COCc1ccc2c(c1)c(OC(C)(C)C(=O)NC(C)C)nn2Cc1cccnc1,"inconclusive: 39.8 µM [inhibitor, partial curve, poor fit]",–
COC(=O)c1ccc2c3c(cccc13)CC2,"inconclusive: 22.4 µM [inhibitor, partial curve, poor fit]",–
CCN(CC)CCNC(=O)c1ccc(-c2nc(CS(=O)(=O)c3ccc(C)cc3)c(C)o2)cc1,"inconclusive: 31.6 µM [inhibitor, partial curve, poor fit]",–
CC(=O)c1cc2c(cc1N/C(=N/S(=O)(=O)c1ccccc1)c1ccc(Cl)cc1)OCO2,"inconclusive: 39.8 µM [inhibitor, single point]",–
COc1ccc2[nH]c3c(c2c1)CCNC31CCN(C(=O)C2CCCO2)CC1 (configuration not stated),"inconclusive: 31.6 µM [inhibitor, partial curve, poor fit]",–
CCOc1ccc(-c2ccccc2)cc1C=O,"inconclusive: 22.4 µM [inhibitor, single point]",–
